Structures are written as SMILES. Whole data set: some 110,000 compounds, median “z-score” near -0.1, cut for the highest 2% near 2. The list shows a part of the results. Calls of active or inactive are those of the source.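 How the source made its calls: active means z-score in the third read window above 3 or below -3; inactive means the rest.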

This assay deals with Metabotropic glutamate receptor 8 (Rattus norvegicus) (UniProt P70579). Kind of assay: mGluR8 Gi/Go-coupled signaling modulation – cell-based, rat, thallium flux, HTS, primary screen (AID 488969). Conditions: HEK293 rat mGluR8, GIRK (G protein-gated inwardly rectifying potassium channel) thallium flux, FluoZin2; at 10 µM; stronger effect = higher value; submaximal glutamate (EC20) added with thallium.
Sequence of UniProt P70579 (P70579 whole entry, looked up): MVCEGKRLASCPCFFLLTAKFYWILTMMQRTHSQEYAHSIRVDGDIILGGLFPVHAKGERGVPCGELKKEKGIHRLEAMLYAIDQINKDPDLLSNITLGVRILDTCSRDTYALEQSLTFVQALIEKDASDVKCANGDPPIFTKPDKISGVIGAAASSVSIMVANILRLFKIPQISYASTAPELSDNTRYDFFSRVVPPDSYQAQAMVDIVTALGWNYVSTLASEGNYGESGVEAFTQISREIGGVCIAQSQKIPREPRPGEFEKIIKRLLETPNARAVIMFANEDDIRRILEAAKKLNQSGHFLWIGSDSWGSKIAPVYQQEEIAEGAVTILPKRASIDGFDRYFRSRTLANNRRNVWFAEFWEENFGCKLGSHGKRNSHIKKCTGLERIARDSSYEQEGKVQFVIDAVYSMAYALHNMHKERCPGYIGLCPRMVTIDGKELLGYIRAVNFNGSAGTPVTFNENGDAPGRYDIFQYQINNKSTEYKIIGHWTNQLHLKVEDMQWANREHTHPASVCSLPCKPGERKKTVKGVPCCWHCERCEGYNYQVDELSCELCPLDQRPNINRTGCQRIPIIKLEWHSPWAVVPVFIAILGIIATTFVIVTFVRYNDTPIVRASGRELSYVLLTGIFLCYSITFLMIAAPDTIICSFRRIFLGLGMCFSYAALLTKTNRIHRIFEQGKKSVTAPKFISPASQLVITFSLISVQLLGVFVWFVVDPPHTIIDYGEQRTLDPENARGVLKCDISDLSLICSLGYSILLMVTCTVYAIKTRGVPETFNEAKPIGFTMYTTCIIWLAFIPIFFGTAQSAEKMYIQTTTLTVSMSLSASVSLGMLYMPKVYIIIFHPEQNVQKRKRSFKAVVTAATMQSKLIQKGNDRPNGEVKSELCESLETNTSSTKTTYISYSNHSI
Turning to `COc1ccc(C2C(C(=O)Nc3ccc4c(c3)OCCO4)c3ccccc3C(=O)N2C)cc1` (stereo unspecified), the z-score was found to be 0.04. With `CCCS(=O)(=O)N1CCC(C(=O)NCc2ccco2)CC1` the figure was 0.18.

On to `CCC(Oc1ccccc1)C(=O)Nc1nnc(C(F)(F)F)s1` (stereo unspecified), for which the z-score was -0.697. With `CCOC(=O)COc1ccsc1C(=O)OC` the figure was -0.0579.

As to `CCn1c(NC(=O)c2ccc(F)cc2)c2ccccc2nc1=O`, the z-score was 0.0383. With `COc1cccc(CN2C(=O)Nc3ccccc3C(=O)N2C(C)(C)C)c1` the figure was 0.149; with `Cc1cc(NC(=O)c2cc(-c3ccccc3C)nc3ccccc23)no1`, -0.217; with `COc1ccc(C2C(Oc3ccccc3)C(=O)N2c2ccc(C)c(C)c2)cc1OC` (stereo unspecified), -0.263. Under `COc1ccc(/C=C/C(=O)Oc2cccc(/C=N/NC(=O)COc3c(C)cccc3C)c2)cc1` stands -0.0501.

With `CC(C)CCn1c(-c2nonc2N)nc2ccccc21`, the z-score is -0.118. With `CCOC(=O)C1=C(C)N(C)C(=O)NC1c1cc2c(cc1Br)OCO2` (stereo unspecified) the figure was 1.61; with `Cc1ccccc1OCCn1cc(C(=S)N2CCCC2)c2ccccc21`, -0.0633; with `CCC(=O)N(Cc1cc2c(C)cc(C)cc2[nH]c1=O)C1CCCCC1`, -1.28. With `COc1ccc2c3c(cccc13)NN=C2C` the figure was 0.39; with `CC(C)CC(=O)Nc1sc2c(c1C#N)CC(C)(C)NC2(C)C`, -0.251. Consider `O=C(COc1c(Br)cc(Br)c2cccnc12)N1CCc2ccccc2C1`, for which the z-score is active: 3.14. In turn, `Cc1ccc(S(=O)(=O)CCC(=O)Nc2ccc3c(c2)OCO3)cc1` came in with a z-score of -0.0887.

As for `Cc1ccc(CN2CCN(CC(=O)NC(C)CCc3ccccc3)C2=O)cc1` (stereo unspecified), the z-score was -0.123. With `CCCCOc1ccccc1N` the figure was 0.576; with `COc1ccc(N=Nc2cnc(C)nc2-c2ccccc2)cc1`, 0.262; with `CCOc1ccccc1NC(=O)NC1(C(=O)N2CCN3CCCC3C2)CCCCC1` (stereo unspecified), -0.551. With `COC(=O)C1=NN(c2ccccc2)C2(S1)S/C(=C\c1ccccc1)C(=O)N2c1ccccc1` (stereo unspecified) the figure was 0.473; with `Cc1nc2ccccc2n1CCc1nc2c3ccccc3nc(SCC#N)n2n1`, 0.407. Under `COc1ccccc1OCc1nc(-c2ccc([N+](=O)[O-])cc2)no1` stands -0.17; under `CCOC(=O)C(NC(=O)c1ccccc1Cl)(Nc1sc2c(c1C(N)=O)CCC2)C(F)(F)F` (stereo unspecified), -0.416; under `O=C1CC(N2CCOCC2)C(=O)N1c1ccccc1Cl` (stereo unspecified), -0.124. `O=C(CCSc1ccccc1)N1CCN(C(=O)c2ccco2)CC1`: the z-score was -0.515.

As to `O=c1/c(=C/c2ccco2)sc2n1CN(c1cccc(Br)c1)CN=2`, the z-score was -1.12. Under `Cc1cc(NC2C3CC4CC(C3)CC2C4)n2ncnc2n1` (stereo unspecified) stands -0.0268. Take `CNC(=O)C1CC(=O)N(CCc2ccc(OC)cc2)C(=Nc2ccc(OC)cc2)S1` (stereo unspecified): the z-score came out at 0.0547. For `Cn1c(=O)n(C)c2cc(C(=O)c3ccccc3)ccc21`, the z-score is -0.216.

The record behind these values is PubChem BioAssay AID488969 (Vanderbilt High Throughput Screening Facility, 2010).
